PubChem BioAssay AID686979 (National Center for Advancing Translational Sciences (NCATS), 2013)
Several values for one entry are separate records, joined by “and”; a condition that tells them apart may be missing. Identical values can stand only once. About 50,000 (12%) of roughly 420,000 compounds were called active. Inconclusive means that the source gave no clear call. Such entries were picked first, then a sample of the others. Calls follow the shape of the dose curve; as a rule, active = well fitted inhibition curve with a large enough effect; inconclusive = small, poorly fitted or top-dose-only effect; inactive = flat fitted curve, though single readings scatter. Potencies of inconclusive entries are left out as doubtful fits.

experiment: qHTS for Inhibitors of human tyrosyl-DNA phosphodiesterase 1 (TDP1): qHTS in cells in presence of CPT; conditions: chicken DT40 Tdp1-/-;hTDP1 cells + 20 nM CPT, ATP luminescence, 48 h; activity change, negative = growth inhibition: at 46.2 µM (top of the series) unless noted; also: nearly all actives have a fitted effect of over 55% in size
Summary of the method: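 Cell growth measured by CellTiter-Glo luminescence after a minimum 48 h, 37 C compound exposure with 20 nM CPT in Tdp1-knockout DT40 cells stably expressing hTDP1, seeded 400/well; qHTS titration format.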
% is scaled to controls: 0 for no effect and ±100 for the full control effect; potency is read from the fitted curve at half-maximal effect; tags tell the direction and shape of the fitted curve.

Structure (SMILES) | Potency | activity change, negative = growth inhibition
COc1cccc(-c2cc(C(F)(F)F)nc(N3CCN(c4ccccc4)CC3)n2)c1 | inactive | –
COc1ccc(C)cc1N(C(=O)c1snc(C(N)=O)c1N)C(C(=O)NC1CCCCC1)c1ccc(C)o1 (configuration not stated) | active: 18.4 µM | –
CCCCNC(=O)C1C(c2ccc(OC)cc2)=Nc2ccccc2N1C(=O)c1ccncc1 (configuration not stated) | active: 23.1 µM | –
O=C(Nc1nc2c(s1)CN(Cc1ccccc1)CC2)C1CCC1 | inconclusive [inhibitor, single point] | –
CSc1ccc(Cn2c(C)c(C(=O)NCc3cccc(Cl)c3)sc2=O)cc1 | inconclusive [inhibitor, partial curve, poor fit] | –
O=C(NCCc1nnc2n1CCN(Cc1ccc(F)cc1)CC2)c1ccco1 | inactive | –
COc1cccc(NC(=O)N2CCC(NC(=O)C(Cc3ccccc3F)NC(C)=O)CC2)c1 (configuration not stated) | inactive | –
COc1ccc(NC(=O)CNS(=O)(=O)c2ccccc2)cc1Cl | inconclusive [inhibitor, single point] | –
CS(=O)(=O)N(CC(=O)Nc1ccccc1Br)Cc1ccccc1 | inactive | –
N#Cc1c(Sc2ncc(C(F)(F)F)cc2Cl)nsc1C/C=N\OCc1ccccc1Br | inconclusive [inhibitor, single point] | –
CCOc1ccc(CCNC(=O)c2ccc3c(=O)n4c(nc3c2)CCCCC4)cc1 | inconclusive [inhibitor, single point] | –
Cc1ccc(-n2c(N)c(C(=O)Nc3c(C)n(C)n(-c4ccccc4)c3=O)c3nc4ccccc4nc32)cc1 | inconclusive [inhibitor, partial curve] | –
CN(C)CCCN(C(=O)c1ccc2c(c1)OCCO2)c1nc2ccccc2s1 | inconclusive [inhibitor, single point] | –
N/C(=N\OC(=O)CC1CCCCC1)c1ccc([N+](=O)[O-])cc1 | inactive | –
CCCCCc1cc(=O)c2ccccc2o1 | inconclusive [inhibitor, partial curve] | –
NC(=O)c1ccsc1NC(=O)CN1CCN(S(=O)(=O)c2ccccc2C(F)(F)F)CC1 | inconclusive [inhibitor, single point] | –
CCC(=O)N1CCC1(C)C(=O)Nc1cnc2ccccc2c1 (configuration not stated) | inactive | –
CCc1cccc(CC)c1NC(=S)N1CCn2cccc2C1c1cccnc1 (configuration not stated) | inconclusive [inhibitor, single point] | –
C[C@@H]1CC=C[C@H]2[C@H]1C(=O)N(Cc1ccccc1)[C@H]2c1ccc(Br)cc1F | inconclusive [inhibitor, single point] | –
COc1ccccc1CNc1ccc(-c2nc(-c3ccco3)no2)cc1[N+](=O)[O-] | inconclusive [inhibitor, partial curve] | –
CN(C)C(CNC(=O)c1cccc(S(=O)(=O)N2CCN(c3ccc(F)cc3)CC2)c1)c1ccccc1 (configuration not stated) | active: 14.6 µM | –
CCOc1ccccc1NC(=O)Cn1cc(C(=O)c2ccc(Cl)cc2)c(=O)c2ccc(C)nc21 | inconclusive [inhibitor, full curve] | –
CN(CC(=O)Nc1ccccc1Br)C(=O)CCc1nc2ccccc2c(=O)[nH]1 | inconclusive [inhibitor, single point] | –

Structure (SMILES) | Potency | activity change, negative = growth inhibition
COc1ccc(C(CNC(=O)/C=C/c2c(Cl)nc3ccccn23)N(C)C)cc1 (configuration not stated) | inconclusive [inhibitor, single point] | –
C/C=C(\C)CN1CCC(n2nccc2NC(=O)CCc2ccccc2)CC1 | inconclusive [inhibitor, single point] | –
CCOc1ccccc1OC(C)C(=O)Nc1ccc(S(=O)(=O)N2CCCC2)cc1 (configuration not stated) | inconclusive [inhibitor, single point] | –
NS(=O)(=O)c1ccc(N/N=C2/CCCc3ccccc32)c([N+](=O)[O-])c1 | inconclusive [inhibitor, single point] | –
CC(C)CCNC(=O)c1ccc2c(c1)N(Cc1cccc(Cl)c1)C(=O)c1ccccc1S2 | inconclusive [inhibitor, single point] | –
COc1ccccc1OC(=O)c1ccc(SC)cc1OC | – | inconclusive: -13.1% [inhibitor]
Cc1ccnc(NC(=O)C2CC(=O)N(c3ccc4c(c3)OCCO4)C2)c1 (configuration not stated) | inactive | –
O=C(Nc1ccc(S(=O)(=O)N2CCOCC2)cc1)c1ccc(Cl)c([N+](=O)[O-])c1 | active: 13 µM | –
c1ccc2c(c1)nnn2Cc1nnc2sc(-c3ccncc3)nn12 | inconclusive [inhibitor, full curve, poor fit] | –
CCOCCCNC(=O)C1c2ccccc2Oc2ccccc21 | inactive | –
CC(C)C[C@H](NC(=O)c1nc[nH]c1C(=O)NCCCCCNC(=O)OC(C)(C)C)C(=O)OC(C)(C)C | inconclusive [inhibitor, single point] | –
O=C(Nc1ccc(N2CCN(C(=O)c3cccs3)CC2)c(Cl)c1)c1cccnc1 | inconclusive [inhibitor, partial curve, poor fit] | –
CC1(C)Cc2c(c(N3CCOCC3)nc3sc4c(NCCN5CCOCC5)nnnc4c23)CS1 | inconclusive [inhibitor, single point] | –
Cn1c(=O)c(=O)n(C)c2cc(S(=O)(=O)CCC(=O)NCc3ccccc3)ccc21 | inactive | –
CCOC(=O)C1(C)CCCCCN1C(=O)c1ccc(C(=O)OC)cc1 (configuration not stated) | inconclusive [inhibitor, partial curve] | –
Nc1nc(N)c2nc(-c3ccccc3)c(N)nc2n1 | active: 18.4 µM and active: 17.8 µM and active: 15 µM | –
CCSc1nnc2ccc(-c3ccc(C)cc3)nn12 | inactive | –
Nn1c(SCC(=O)Nc2cccnc2Cl)nnc1-c1ccccc1 | inconclusive [inhibitor, single point] | –
CCN(CC)CC#CCC(OC)(c1ccccc1)c1ccccc1 | inactive | –
Cc1[nH]n(-c2ncc(-c3ccccc3)s2)c(=O)c1C(c1ccc(Cl)cc1)C(C#N)C#N (configuration not stated) | – | inconclusive: -35.8% [inhibitor]
Cc1ccc(OCCC(=O)OCC(=O)Nc2ccccc2)cc1 | inconclusive [inhibitor, single point] | –
O=C(c1ccc(NC(=O)C(c2ccccc2)c2ccccc2)cc1)c1ccc(C(=O)O)c(C(=O)O)c1 | inactive | –
O=C(/C=C/c1ccc(F)cc1)NCC1(c2ccccc2)CCOCC1 | inconclusive [inhibitor, single point] | –

Structure (SMILES) | Potency | activity change, negative = growth inhibition
N=C(N)SCc1nc2ccccc2c(=O)n1-c1ccccc1Cl | active: 25.9 µM | –
O=C(COc1ccccc1)NC(=S)Nc1ccc2c(c1)Cc1ccccc1-2 | inconclusive [inhibitor, single point] | –
COc1ccc(-n2cnnc2SCC(=O)Nc2cccc(S(=O)(=O)N3CCCCC3)c2)cc1 | inactive | –
C[C@H](NC(=O)c1nc[nH]c1C(=O)N[C@@H](Cc1ccccc1)C(=O)OC(C)(C)C)C(=O)OCc1ccccc1 | inconclusive [inhibitor, single point] | –
O=C(NC1CCCCCC1)C1CCN(C(=O)c2ccc(Br)cc2)CC1 | active: 20.6 µM | –
CC(C)OC(=O)c1cn(-c2ccccc2)nc1-c1ccco1 | inconclusive [inhibitor, single point] | –
Cc1[nH]n(-c2ccccc2)c(=S)c1C=Nc1cccc([N+](=O)[O-])c1 | inconclusive [inhibitor, single point] | –
O=C(Nc1ccc2oc(-c3cccnc3)nc2c1)c1ccc(-c2ccc(OC(F)(F)F)cc2)o1 | inconclusive [inhibitor, single point] | –
CCNc1nc(C#N)nc(Nc2ccccc2)n1 | inconclusive [inhibitor, single point] | –
COc1ccc(N2CCN(C(=O)CN3C(=O)CSc4c3c(C)nn4-c3ccccc3)CC2)cc1 | inconclusive [inhibitor, partial curve] | –
CCN(CC)C(=O)C1=C(C)N(CCC2=CCCCC2)C(=O)C(CC(=O)NCCCN(C)C)C1 (configuration not stated) | inactive | –
Cc1ccc(NC(=O)CN(C)C(=O)c2ccccc2Cc2ccccc2)cc1 | inconclusive [inhibitor, single point] | –
C=CCNC(=O)c1onc(CCl)c1C(=O)OC | active: 23.1 µM | –
CCC(=O)C1CCCN(C(=O)c2ccc3nc(-c4cccc(OC)c4)oc3c2)C1 (configuration not stated) | inconclusive [inhibitor, single point] | –
Cn1c2ccccc2c(=O)c2cc(NCCCN3CCOCC3)ccc21 | inconclusive [inhibitor, single point] | –
Cc1ccc(OCC(=O)Nc2ccc3c(c2)nc(CCNC(=O)c2ccco2)n3C)cc1 | inconclusive [inhibitor, partial curve, poor fit] | –
CN(C)C(=O)CN1CCN(c2nc3nonc3nc2N2CCCCC2)CC1 | inactive | –
COc1cccc(-n2cc(-c3ccc(F)cc3)[nH]c2=S)c1 | inconclusive [inhibitor, single point] | –
COc1ccc(-c2noc(CCCC(=O)N3CCN(c4cc(C)ccc4C)CC3)n2)cc1 | inconclusive [inhibitor, single point] | –
N/C(=N\S(=O)(=O)c1cccs1)c1ccccc1 | inactive | –
O=C(Nc1ccc(F)c(Cl)c1)c1cc(S(=O)(=O)N2CCc3ccccc3C2)ccc1F | inconclusive [inhibitor, single point] | –
